Consider 52 compounds from PubChem BioAssay AID1346428 (National Center for Advancing Translational Sciences (NCATS), 2018).

About 1,200 (2.5%) of roughly 48,000 compounds were called active. Inconclusive results (about 2%) are left out.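 The calls were made as follows: active = activation of at least 60% and not above a set upper limit (about 1 call in 100 departs from these limits); inconclusive = activation of 40% to 60%, or above that upper limit; inactive = activation under 40%.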 The list shows a part of the results.

The target in the test is Probable G-protein coupled receptor 32 (Homo sapiens) (UniProt O75388). Nature of the test: qHTS for Agonists of Human Resolvin D1 Receptor DRV1. As to conditions: CHO-K1 GPR32 beta-arrestin PathHunter luminescence, 90 min; at 76.9 µM; active compounds read high; zero percent set by DMSO-only wells. In short, it runs like this: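 PathHunter enzyme-fragment complementation, CHO-K1 GPR32 stable line; 2,500 cells/well, overnight attach; cpd 90 min 37 °C 5% CO2; detection reagent 1 h RT; chemiluminescence. DMSO = EC0.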
Sequence of UniProt O75388 (O75388 whole entry, looked up, the tested form may be a part): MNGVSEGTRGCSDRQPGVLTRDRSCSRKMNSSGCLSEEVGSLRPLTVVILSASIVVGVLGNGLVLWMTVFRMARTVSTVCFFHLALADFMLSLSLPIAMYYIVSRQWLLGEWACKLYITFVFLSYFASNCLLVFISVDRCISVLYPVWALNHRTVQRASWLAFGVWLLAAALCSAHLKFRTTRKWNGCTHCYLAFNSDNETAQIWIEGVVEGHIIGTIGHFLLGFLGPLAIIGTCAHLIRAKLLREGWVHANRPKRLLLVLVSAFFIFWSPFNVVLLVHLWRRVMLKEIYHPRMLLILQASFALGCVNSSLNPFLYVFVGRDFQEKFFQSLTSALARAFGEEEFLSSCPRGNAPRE
On the technique in general: qHTS replaces the single test concentration by a dilution series.
Consider `CSc1ncc(Cl)c(C(=O)N(Cc2ccccc2Cl)C2CCS(=O)(=O)C2)n1` (configuration not stated), for which the activation is inactive: 13.2%.

Turning to `CCOc1ccc(C(=O)OCc2cc(=O)n3nc(C4CCCCC4)sc3n2)cc1`, the activation is inactive: 23.6%.

Take `Cc1cc(C)cc(NC(=O)NCCn2nnc3cc(S(=O)(=O)N(C)C)ccc32)c1`: the activation was inactive: -3.99%.

Regarding `COC(=O)c1cnn(-c2ccc(C(=O)Nc3cccc(C(C)=O)c3)cc2)c1N`, the activation is inactive: -4.15%.

With `CCOc1ccc(NC(=O)CC2C(=O)N(c3ccccc3)C(=O)N2CCc2ccc(OC)cc2)cc1` (configuration not stated), the activation is inactive: -1.98%.

As for `CCCCN(CC)CCNC(=O)Cn1cnc2sc(C)c(S(=O)(=O)N3CCC(C)CC3)c2c1=O`, the activation is inactive: 6.19%.

Turning to `O=C1c2oc3ccccc3c(=O)c2C(c2ccc(Br)cc2)N1c1ccccn1` (configuration not stated), the activation was inactive: -3.37%.

As for `COc1ccc(Cn2c(C(=O)O)c(CNCc3cccc(OC)c3)c3ccc(C)cc32)cc1`, the activation is inactive: 9.39%.

`O=C1CN(C(=O)Cc2ccc(F)cc2)C(c2ccccc2)c2cc(Br)ccc2N1` (configuration not stated): the activation was inactive: -0.0388%.

As to `Cc1ccc(NC(=O)Cn2nc(C)c3nn(-c4ccc(Cl)cc4)c(C)c3c2=O)cc1C`, the activation was inactive: -28.2%.

As to `Cn1c(=O)oc2cc(S(=O)(=O)N3CCC(C(=O)NCc4ccccc4Cl)CC3)ccc21`, the activation is inactive: 2.15%.

Regarding `CC(=O)c1ccc(N2CCN(S(=O)(=O)c3c(C)nc4sc(C)cn4c3=O)CC2)cc1`, the activation is inactive: -12%.

For the compound `COc1ccc(N2C(=O)CSC23C(=O)N(CC(=O)NC2CCCCC2)c2ccccc23)cc1` (configuration not stated), the activation is inactive: -23.5%.

As for `CCc1nn(CC(=O)N2CCN(c3cccc(C)c3C)CC2)c(=O)c2cc3occc3n12`, the activation was inactive: -9.71%.

As to `Cc1cccc(N2CCN(C(=O)C3CCC(CNS(=O)(=O)c4ccc(Br)s4)CC3)CC2)c1C` (configuration not stated), the activation was inactive: -1.1%.

Turning to `CCOC(=O)c1[nH]c(C)c(CCC(=O)Nc2c(C)cc(C)cc2C)c1C`, the activation is inactive: -6.02%.

As for `CCCn1c(SCc2nc(-c3ccccc3C)no2)nnc1-c1ccc(Cl)cc1`, the activation was inactive: -1.12%.

As for `Cc1cccc(OCc2cc(=O)n3c(-c4ccccc4)csc3n2)c1C`, the activation was inactive: 21%.

As for `CCCCn1cc(S(=O)(=O)c2ccc(C)c(C)c2)c(=O)c2cc(F)c(N3CCN(C)CC3)cc21`, the activation was inactive: -11.5%.

As to `NC(=O)CSc1oc(-c2ccco2)nc1S(=O)(=O)c1ccc(Br)cc1`, the activation is inactive: -20.7%.

As for `Cn1c(CN2CCCCC2)nc2cc(NC(=O)c3cccc(Br)c3)ccc21`, the activation is inactive: -3.53%.

On to `CCc1nnc(NC(=O)c2nc(S(=O)(=O)Cc3cccc(C)c3)ncc2Cl)s1`, for which the activation is inactive: 0.634%.

Consider `CCc1nn(CC(=O)NC(C)CCc2ccccc2)c(=O)c2cc3cc(F)ccc3n12` (configuration not stated), for which the activation was inactive: -1.56%.

As to `CCC(C(=O)Nc1ccccc1C(=O)OC)n1c(C)c2cnn(-c3ccccc3)c(=O)c2c1C` (configuration not stated), the activation was inactive: 1.75%.

`CCC(Oc1ccccc1)C(=O)Nc1ccc(O)c(-c2nc3cc(C)ccc3o2)c1` (configuration not stated): the activation is inactive: -42.7%.

Turning to `CCn1cc(C(=O)NCCCOC(C)C)c(=O)c2cc(S(=O)(=O)N3CCc4ccccc4C3)ccc21`, the activation was inactive: -19.7%.

`O=C(CN1C(=O)CCSc2ccc(S(=O)(=O)N3CCCC3)cc21)Nc1ccccc1`: the activation was inactive: -3.63%.

Regarding `O=C(Cn1cc(S(=O)(=O)Cc2ccccc2Cl)c2ccccc21)NCc1ccccc1Cl`, the activation is inactive: -2%.

In the case of `Cn1c(NCCCCO)nc2c1c(=O)n(Cc1ccc(Cl)cc1)c(=O)n2C`, the activation was inactive: 5.86%.

Regarding `O=C1O/C(=C/Br)CCC1c1cccc2ccccc12` (configuration not stated), the activation was inactive: -11.9%.

As to `COc1ccc(NC(=O)Cn2c(=O)n(CCCC(=O)NCc3ccccc3OC)c(=O)c3ccccc32)cc1Cl`, the activation is inactive: -0.0076%.

Take `COc1cccc(NC(=O)CCS(=O)(=O)c2ccc3c(c2)oc(=O)n3C)c1`: the activation is inactive: -3.59%.

As for `Cc1ccc2c(c1)c1c(c(=O)n(-c3cccc(Cl)c3)c(=O)n1CC(=O)N1CCCC1)n2C`, the activation was inactive: 5.05%.

With `CC(O)COc1ccccc1` (configuration not stated), the activation was inactive: -1.64%.

With `COc1cc(C2c3c(oc4cc(C)c(C)cc4c3=O)C(=O)N2CCCN2CCOCC2)ccc1O` (configuration not stated), the activation was inactive: -4.48%.

For `CCOC(=O)c1cc(S(=O)(=O)Nc2ccc(Br)c(C)c2)[nH]n1`, the activation was inactive: 22.4%.

With `Cc1c(C(=O)N2CCC(c3nc4ccccc4s3)CC2)oc2cc(Br)ccc12`, the activation was inactive: -9.61%.

As to `COc1ccc(Br)cc1CNC(=O)c1cc(=O)[nH]c2ccc(S(=O)(=O)N3CCCC3)cc12`, the activation is inactive: -12.5%.

Consider `CCOc1ccc(-n2c(SCc3nc(-c4ccc(OC)cc4)no3)nnc2-c2ccncc2)cc1`, for which the activation is inactive: -9.21%.

For the compound `CCOc1cccc2cc(-c3nc4sc5c(c4c(=O)[nH]3)CCC(C(C)(C)C)C5)c(=O)oc12` (configuration not stated), the activation is inactive: 2.27%.

Consider `CCCNC(=O)c1cc2nc(-c3ccc(Br)cc3)cc(C(F)(F)F)n2n1`, for which the activation was inactive: -5.4%.

`CC(C)Cc1ccc(C(C)C(=O)OCc2ccccn2)cc1` (configuration not stated): the activation is inactive: -0.967%.

For `COc1ccc(Br)cc1CNC(=O)c1cc2ccccn2n1`, the activation is inactive: 40.6%.

As to `O=C(COC(=O)c1cc(-c2cccs2)nc2ccccc12)c1ccc(Br)cc1`, the activation is inactive: 9.49%.

Regarding `CCOc1ccccc1NC(=O)Cn1c(=O)n(CCC(C)C)c(=O)c2cccnc21`, the activation is inactive: 0.0264%.

As to `CC1=C(C(=O)Nc2ccccc2)C(c2ccccc2C)n2ncc(C(=O)Nc3ccccc3)c2N1` (configuration not stated), the activation is inactive: -24.3%.

For `Cc1cc(C)cc(OCCn2c(C3CC(=O)N(c4ccccc4Cl)C3)nc3ccccc32)c1` (configuration not stated), the activation is inactive: 9.99%.

As for `Cc1nc2ccccc2n1CCc1nc2c3ccccc3nc(SCc3cccc(F)c3)n2n1`, the activation was inactive: 17.9%.

Turning to `Cc1ccc2c(=O)c(C(=O)c3ccccc3)cn(CC(=O)Nc3ccc4c(c3)OCCO4)c2n1`, the activation is inactive: 9.71%.

Take `CC(C)(C)c1ccc(C2Sc3ccccc3NC3=C2C(=O)c2ccccc23)cc1` (configuration not stated): the activation was inactive: -52%.

For the compound `Cn1c(=O)c2sccc2n2c(CCC(=O)NCc3ccc(F)cc3)nnc12`, the activation was inactive: 0.546%.

With `COc1ccc(CCNC(=O)CCn2c(=O)c3ccccc3n(CC(=O)Nc3ccccc3F)c2=O)cc1OC`, the activation was inactive: 10.4%.
